“And” between values parts separate entries of the source, which are not always exact repeats. Equal values may be shown once. The campaign covered roughly 48,000 compounds. About 1,200 (2.5%) were called active. About 2% were inconclusive and are not listed.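 How the source made its calls: active means activation of at least 60% and not above a set upper limit (about 1 call in 100 departs from these limits); inconclusive means activation of 40% to 60%, or above that upper limit; inactive means activation under 40%.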 Some of the results follow. The source holds several records for some structures; these can differ, active in one and inactive in another.

UniProt O75388, sequence (O75388 whole entry, looked up, the tested form may be a part): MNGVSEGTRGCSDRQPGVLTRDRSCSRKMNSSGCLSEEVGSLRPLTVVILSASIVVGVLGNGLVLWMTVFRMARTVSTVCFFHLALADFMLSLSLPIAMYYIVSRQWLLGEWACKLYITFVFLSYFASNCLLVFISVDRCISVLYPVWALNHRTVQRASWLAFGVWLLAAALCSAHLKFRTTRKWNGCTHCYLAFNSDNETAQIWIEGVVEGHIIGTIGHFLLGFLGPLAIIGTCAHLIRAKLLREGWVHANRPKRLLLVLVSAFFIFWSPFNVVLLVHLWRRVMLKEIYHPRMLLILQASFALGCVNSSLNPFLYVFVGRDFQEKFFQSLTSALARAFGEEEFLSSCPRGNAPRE

In the assay the target is Probable G-protein coupled receptor 32 (Homo sapiens) (UniProt O75388). Put plainly: qHTS for Agonists of Human Resolvin D1 Receptor DRV1. Further: 0% is about no effect. To be noted: CHO-K1 GPR32 beta-arrestin PathHunter luminescence, 90 min; at 76.9 µM; stronger effect = higher value; zero percent set by DMSO-only wells. In short, it runs like this:
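Agonism was scored by beta-Gal fragment complementation (chemiluminescent read, 1 h detection at ambient temperature) reporting beta-arrestin binding to GPR32 in engineered CHO-K1 cells. Compound treatment lasted 90 min at 37 C, normalized to a DMSO basal control.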
Background: In qHTS, concentration-response curves come from the screen itself.
In the case of `COc1ccc(-c2nc(SCC(=O)NCC3CCCO3)c(-c3ccc(C)cc3)[nH]2)cc1OC` (configuration not stated), the activation was inactive: -23.8%.
With `C#CCN(C)CCCOc1ccc(Cl)cc1Cl`, the activation is inactive: 2.13% and inactive: -2.6%.
The value for `CCCCNC(=O)CN1CCN(c2ccc(NC(=O)c3ccc(OC)cc3)cc2C(=O)O)CC1` was inactive: 2.28%; that for `COc1ccc(NC(=O)N2CCN(Cc3nc4ccc(C)cc4o3)CC2)cc1OC` was inactive: 18.7%.
On to `O=C(O)CN(CCN(CC(=O)O)CC(=O)O)CCN(CC(=O)O)CC(=O)O`, for which the activation was active: 70.2% and inactive: 6.83%.
The value for `COc1ccc(-c2c(C#N)c(SCC(=O)Nc3ccc(C)c(C)c3)nc(C)c2C(=O)Nc2ccccc2)cc1OC` was inactive: -18.8%; that for `CC(C)(CO)Cc1cc(C(C)(C)C)c(O)c(C(C)(C)C)c1` was inactive: -34.4%; that for `CCCN1CCN(c2ncnc3sc(C(=O)Nc4ccc(OC(F)(F)F)cc4)c(C)c23)CC1` was inactive: -23.5%.
`CC1CCN(c2nc3ccccc3nc2SCC(=O)Nc2ccccc2C(C)C)CC1`: the activation was inactive: -11.8%.
For the compound `Cc1nnc(N2CCCC(C(=O)Nc3cc(F)ccc3F)C2)c2nn(-c3ccccc3)c(C)c12` (configuration not stated), the activation is inactive: 2.62%.
`CCCn1cnc2c1c(=O)n(CCCCC(C)=O)c(=O)n2C`: the activation was inactive: 14.1% and inactive: -1.37%.
On to `CCCCC(=O)OCc1cc(=O)n2nc(C3CC3)sc2n1`, for which the activation is inactive: 15.5%.
The result for `CC(=O)c1ccc(NC(=O)Cn2c(=O)nc(-c3ccccc3)c3ccccc32)cc1` reads inactive: -12.1%; that for `O=C(CS(=O)(=O)c1cccc2nsnc12)N1CCN(c2ccc(F)cc2)CC1`, inactive: 11.4%.
The result for `COc1cc(NC(=O)COCc2cc(-c3ccc4c(c3)OCO4)on2)c(OC)cc1Cl` reads inactive: 0.779%.
The result for `CCOc1ccc(C(=O)c2cn(CC(=O)Nc3ccc(C)c(Cl)c3)c3ccc(OCC)cc3c2=O)cc1` reads inactive: -4.9%; that for `CCCCN(CC)CCCNC(=O)c1ccc2c(c1)N(Cc1ccc(C)cc1)C(=O)c1ccccc1S2`, inactive: -1.36%; that for `Cc1cc(-c2ccc(C)c(S(=O)(=O)Nc3ccc(C)c(N(C)C)c3)c2)on1`, inactive: -20.9%.
For the compound `CCOc1ccc(CCNC(=O)c2cc3n(n2)CCCN(Cc2ccc(C)cc2)C3=O)cc1OCC`, the activation is inactive: 18.7%.
On to `O=C(NC1(C(F)(F)F)N=C(c2ccccc2)N(Cc2ccccc2)C1=O)c1ccc(F)cc1` (configuration not stated), for which the activation is inactive: 10.7%.
Consider `CCCCCCCCCCCCCCSCC(=O)O`, for which the activation is inactive: -2.54%.
The result for `O=C(CCCc1nc(-c2ccc(Cl)cc2)no1)NCc1ccco1` reads inactive: 15%.
The result for `Cn1cnc(S(=O)(=O)N2CCC(C(=O)Nc3ccc(OC(F)(F)F)cc3)CC2)c1` reads inactive: -4.19%; that for `CCN(CC)c1cc(NC2CCCCC2)c2c3c(onc13)-c1ccccc1C2=O`, inactive: -33.3%; that for `CC1CCN(S(=O)(=O)c2ccc3c(c2)N(CC(=O)N(C)Cc2ccccc2)C(=O)CO3)CC1`, inactive: -25.6%.
In the case of `O=C(c1ccc2c(c1)N(Cc1ccccc1)C(=O)c1ccccc1S2(=O)=O)N1CCC(Cc2ccccc2)CC1`, the activation was inactive: -8.72%.
The value for `Cc1cc(C)c(NC(=O)Cn2nnc3sc4c(c3c2=O)CCC(C(C)(C)C)C4)c(C)c1` (configuration not stated) was inactive: 3.5%; that for `O=c1c2sc3ccccc3c2n(Cc2cccc(Cl)c2)c(=O)n1Cc1ccc(F)cc1` was inactive: -6.67%.
The value for `COc1cccc(CNC(=O)C2CCCN(c3nn4cc(-c5ccc(C)cc5)nc4s3)C2)c1` (configuration not stated) was inactive: -21.4%; that for `COc1cc(C2c3c(-c4ccccc4O)n[nH]c3C(=O)N2Cc2ccncc2)cc(OC)c1OC` (configuration not stated) was inactive: -11.9%.
The value for `CCCCN1C(C(=O)c2ccccc2)=C(OC(=O)CC)c2ccccc2S1(=O)=O` was inactive: -51.4%.
Turning to `O=c1c2c3c(sc2nnn1CCCCOc1ccc(Cl)cc1)CCCC3`, the activation was inactive: -4.87%.
The value for `CCCSC1=NC2(CCN(C(=O)NC3CCCCC3)CC2)N=C1c1ccc(OC)cc1` was inactive: -25.9%; that for `COc1cc(-c2noc(-c3cc4cccc(C)c4oc3=O)n2)cc(OC)c1OC` was inactive: -11.5%.
The result for `COc1ccc(-c2nsc(NC(=O)c3oc4ccc(Cl)cc4c3C)n2)cc1` reads inactive: -0.728%; that for `CCOc1ccccc1-n1c(N)c(C(=O)OC)c2nc3ccccc3nc21`, inactive: -0.25%; that for `O=C(Nc1ccc(F)cc1)c1nc(SCc2ccccc2F)ncc1Cl`, inactive: -1.65%.
The result for `Cc1nc(-c2cccc(F)c2)sc1CCNC(=O)Cc1ccc(F)cc1` reads active: 88.1%; that for `N#C/C(=C/c1ccc(O)cc1)c1nc(-c2ccc(-c3ccccc3)cc2)cs1`, inactive: -2.86%.
For `Cc1ccc(OCCn2c(CNc3ccccc3C)nc3ccccc32)cc1`, the activation is inactive: -8.8%.
Consider `Cn1c(C(=O)NCc2ccccc2Cl)cc2sc(Cl)cc21`, for which the activation was inactive: -7.61%.
In the case of `CO/N=C(\C(=O)N[C@@H]1C(=O)N2C(C(=O)O)=C(CSc3nc(=O)c(O)nn3C)CSC12)c1csc(N)n1` (some centres not stated), the activation is inactive: 11.2%.
Regarding `Cc1cc(NC(=O)c2cnn(-c3ccccc3)c2-n2cccc2)ccc1Br`, the activation was inactive: -5.66%.
On to `COc1cccc(CNC(=O)CN(c2ccc(C)cc2)S(=O)(=O)N(C)C)c1OC`, for which the activation was inactive: 22.2%.
With `CCc1cccc(NC(=O)Cn2c(=O)n(CC3CCC(C(=O)NC)CC3)c(=O)c3sccc32)c1` (configuration not stated), the activation is inactive: -5.85%.
The value for `COc1ccc(-c2csc3ncnc(Nc4ccc(OC)cc4OC)c23)cc1` was inactive: -20%; that for `COc1cccc(-c2nc3c(C#N)c[nH]n3c2NC2CCCCC2)c1` was inactive: -12.3%.
The value for `Cc1cccc(N(C)C(=O)C2CCC(CNS(=O)(=O)c3cccc4nsnc34)CC2)c1` (configuration not stated) was inactive: -7.57%; that for `N#CC1=C(N)N(c2ccc(Cl)cc2)C2=C(C(=O)CCC2)C1c1cc(CN2CCOCC2)cs1` (configuration not stated) was inactive: -5.76%.
As for `COc1cc(NS(=O)(=O)c2cc(Br)cc3c2N(C(C)=O)C(C)C3)cc(OC)c1` (configuration not stated), the activation is inactive: 7.96%.
As to `O=C(NC1CCCCC1)c1ccc2c(c1)N(Cc1ccc(F)cc1)C(=O)c1ccccc1S2(=O)=O`, the activation was inactive: -25.4%.
The value for `COc1cccc(CNC(=O)Cn2c(=O)cc(C)c3c(C)nn(C)c32)c1OC` was inactive: 36.3%.
